Here are results for 4 compounds from patent publication US20240391902A1, “Crystalline Form of Compound” (Shenzhen Forward Pharmaceuticals Co., Limited, priority 2020, published 2024).

The structures appear in SMILES notation. The source gives many values for each of these; only a part stands here. A value given as a limit tells only on which side of the number the result lay.

This data set in a line: Dynamic solubility test. As to conditions: room temperature, feeding concentration 10 mg/mL. It is filed as physicochemical. As for the experimental part:
Determination method: According to a feeding concentration of 10 mg/mL, about 50 mg of the sample were weighed and added to 5 mL of the corresponding medium, and the sample was dissolved by rotating at […] at room temperature.

In the case of `C=CC(=O)Nc1cc(Nc2ncnc(-c3cn(C)c4ccccc34)n2)c(OC)cc1N(C)CCN(C)C` [Example 21], the dynamic solubility is, setting by setting: (FaSSIF, 0.5 h, listed as compound of formula (I)) less than 1000 µg/mL; (FaSSIF, 1 h, listed as compound of formula (I)) less than 1000 µg/mL; (FaSSIF, 2 h, listed as compound of formula (I)) less than 1000 µg/mL; (FaSSIF, 4 h, listed as compound of formula (I)) less than 1000 µg/mL; (FaSSIF, 24 h, listed as compound of formula (I)) less than 1000 µg/mL; (FeSSIF, 0.5 h, listed as compound of formula (I)) less than 1000 µg/mL. For the same compound, the dynamic solubility was less than 1000 µg/mL (FeSSIF, 1 h, listed as compound of formula (I)); less than 1000 µg/mL (FeSSIF, 2 h, listed as compound of formula (I)); less than 1000 µg/mL (FeSSIF, 4 h, listed as compound of formula (I)); less than 1000 µg/mL (FeSSIF, 24 h, listed as compound of formula (I)).
`C=CC(=O)Nc1cc(Nc2ncnc(-c3cn(C)c4ccccc34)n2)c(OC)cc1N(C)CCN(C)C` [Example 22]: the dynamic solubility reads like this: (FeSSIF, 0.5 h, listed as crystaline form II-A of mesylate salt) 8100 µg/mL; (FeSSIF, 1 h, listed as crystaline form II-A of mesylate salt) more than 9100 µg/mL; (FeSSIF, 2 h, listed as crystaline form II-A of mesylate salt) more than 10000 µg/mL; (FeSSIF, 4 h, listed as crystaline form II-A of mesylate salt) more than 10000 µg/mL; (FeSSIF, 24 h, listed as crystaline form II-A of mesylate salt) more than 10000 µg/mL; (water, 0.5 h, listed as crystaline form II-A of mesylate salt) more than 9200 µg/mL. The dynamic solubility is, setting by setting: (water, 1 h, listed as crystaline form II-A of mesylate salt) more than 9200 µg/mL; (water, 2 h, listed as crystaline form II-A of mesylate salt) more than 9400 µg/mL; (water, 4 h, listed as crystaline form II-A of mesylate salt) more than 9800 µg/mL; (water, 24 h, listed as crystaline form II-A of mesylate salt) more than 9100 µg/mL.
On to `C=CC(=O)Nc1cc(Nc2ncnc(-c3cn(C)c4ccccc34)n2)c(OC)cc1N(C)CCN(C)C` [Example 23], for which the dynamic solubility by setting is: (FeSSIF, 0.5 h, listed as crystaline form III-A of hydrochloride salt) more than 10000 µg/mL; (FeSSIF, 1 h, listed as crystaline form III-A of hydrochloride salt) more than 10000 µg/mL; (FeSSIF, 2 h, listed as crystaline form III-A of hydrochloride salt) more than 10000 µg/mL; (FeSSIF, 4 h, listed as crystaline form III-A of hydrochloride salt) more than 10000 µg/mL; (FeSSIF, 24 h, listed as crystaline form III-A of hydrochloride salt) more than 10000 µg/mL; (water, 0.5 h, listed as crystaline form III-A of hydrochloride salt) 8200 µg/mL. Besides, the dynamic solubility turned out to be 8800 µg/mL (water, 1 h, listed as crystaline form III-A of hydrochloride salt); 9700 µg/mL (water, 2 h, listed as crystaline form III-A of hydrochloride salt); 9000 µg/mL (water, 4 h, listed as crystaline form III-A of hydrochloride salt); 9700 µg/mL (water, 24 h, listed as crystaline form III-A of hydrochloride salt).
Turning to `C=CC(=O)Nc1cc(Nc2ncnc(-c3cn(C)c4ccccc34)n2)c(OC)cc1N(C)CCN(C)C` [Example 24], the dynamic solubility is 7200 µg/mL (FaSSIF, 2 h, listed as crystaline form IV-C of maleate salt); 7700 µg/mL (FaSSIF, 4 h, listed as crystaline form IV-C of maleate salt); more than 9900 µg/mL (FaSSIF, 24 h, listed as crystaline form IV-C of maleate salt); more than 10000 µg/mL (FeSSIF, 0.5 h, listed as crystaline form IV-C of maleate salt); more than 10000 µg/mL (FeSSIF, 1 h, listed as crystaline form IV-C of maleate salt); more than 10000 µg/mL (FeSSIF, 2 h, listed as crystaline form IV-C of maleate salt). The dynamic solubility is more than 10000 µg/mL (FeSSIF, 4 h, listed as crystaline form IV-C of maleate salt); more than 10000 µg/mL (FeSSIF, 24 h, listed as crystaline form IV-C of maleate salt); 4000 µg/mL (water, 0.5 h, listed as crystaline form IV-C of maleate salt); 4300 µg/mL (water, 1 h, listed as crystaline form IV-C of maleate salt); 4400 µg/mL (water, 2 h, listed as crystaline form IV-C of maleate salt); 4700 µg/mL (water, 4 h, listed as crystaline form IV-C of maleate salt). For the setting “water, 24 h, listed as crystaline form IV-C of maleate salt”, the dynamic solubility was 4400 µg/mL.
